The whole screen tested about 39,000 compounds, of which about 220 (0.56%) showed activity. The list shows a part of the results.
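Also: static incubation at 37 °C against the wild-type strain, values averaged over two biological replicates.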

This test deals with Escherichia coli K-12 BW25113. Nature of the test: relative growth (OD600 normalised to plate interquartile mean) (fraction); higher = less growth inhibition, active = 0.2 or less. The settings on record: 50 µM; LB; incubation time: overnight (16-24 h).
With `C[C@@H]1CN([C@@H](C)CO)C(=O)c2cc(NC(=O)CCN3CCOCC3)ccc2O[C@@H]1CN(C)C(=O)Nc1ccccc1`, the relative growth was inactive: 0.973.

On to `O=c1[nH]c(=S)nc2n(CCO)[nH]cc1-2`, for which the relative growth was inactive: 1.

`NC(=O)c1ncn([C@@H]2O[C@H](CO)[C@@H](O)[C@H]2O)c1N`: the relative growth was inactive: 0.993.

For the molecule `O=C(O)c1ccccc1-c1c2cc(I)c(=O)c(I)c-2oc2c(I)c(O)c(I)cc12`, the relative growth is inactive: 0.961.

`C[C@H]1CN([C@@H](C)CO)C(=O)c2cc(NC(=O)Nc3ccc(F)cc3)ccc2O[C@@H]1CN(C)Cc1ccc(-c2ccccc2)cc1`: the relative growth was inactive: 0.98.

As to `C[C@@H]1CN([C@H](C)CO)C(=O)Cc2cc(NS(=O)(=O)c3ccccc3)ccc2O[C@@H]1CN(C)S(C)(=O)=O`, the relative growth was inactive: 0.985.

Regarding `COc1ccc(cc1)CN1C[C@]2(CCN(CC2)S(=O)(=O)c2cn(cn2)C)c2c([nH]c3cc(ccc23)OC)[C@@H]1CO`, the relative growth is inactive: 1.

`C[C@@H]1CN([C@H](C)CO)C(=O)c2cc(C#CCN(C)C)cnc2O[C@@H]1CN(C)C(=O)CCN1CCCCC1`: the relative growth is inactive: 1.01.

Regarding `COc1ccc(S(=O)(=O)N(C)C[C@@H]2Oc3ccc(NS(=O)(=O)c4ccc(F)cc4)cc3C(=O)N([C@H](C)CO)C[C@@H]2C)cc1`, the relative growth is inactive: 1.04.

Turning to `C[C@H]1CN([C@@H](C)CO)C(=O)c2cc(NC(=O)Nc3ccc(C(F)(F)F)cc3)ccc2O[C@@H]1CN(C)Cc1ccc(C(=O)O)cc1`, the relative growth was inactive: 0.949.

In the case of `C[C@@H]1CN([C@H](C)CO)C(=O)c2cccc(NS(=O)(=O)c3cccs3)c2O[C@@H]1CN(C)S(=O)(=O)c1ccc(F)cc1`, the relative growth was inactive: 1.05.

With `C[C@@H]1CN([C@H](C)CO)C(=O)c2cc(NC(=O)C3CCCCC3)ccc2O[C@H]1CN(C)C(=O)Nc1cccc2ccccc12`, the relative growth is inactive: 1.

For the molecule `Cc1noc(C)c1S(=O)(=O)Nc1ccc2c(c1)C(=O)N([C@H](C)CO)C[C@@H](C)[C@@H](CN(C)S(=O)(=O)c1cn(C)cn1)O2`, the relative growth was inactive: 0.979.

For `C[C@H](O)C#Cc1ccc2c(c1)O[C@H](CN(C)C)[C@@H](C)CN([C@H](C)CO)S2(=O)=O`, the relative growth is inactive: 1.03.

For the molecule `COc1ccc(NC(=O)N(C)C[C@H]2OCCCC[C@H](C)Oc3ccc(NS(=O)(=O)c4ccccc4)cc3C(=O)N([C@@H](C)CO)C[C@@H]2C)cc1`, the relative growth is inactive: 0.999.

For the molecule `C[C@H]1CN([C@@H](C)CO)C(=O)c2cc(NC(=O)Cc3cn(C)c4ccccc34)ccc2O[C@H]1CN(C)C(=O)Nc1cccc2ccccc12`, the relative growth was inactive: 0.99.

As for `C[C@@H]1CN([C@H](C)CO)C(=O)c2cccc(NC(=O)c3ccc(-c4nccs4)cc3)c2O[C@H]1CN(C)Cc1ccc(C(=O)O)cc1`, the relative growth was inactive: 0.991.

As to `COc1ccc(S(=O)(=O)N(C)C[C@H]2Oc3ccc(NS(=O)(=O)c4c(C)noc4C)cc3CC(=O)N([C@H](C)CO)C[C@H]2C)cc1`, the relative growth is inactive: 1.

For the molecule `Cc1noc(C)c1NC(=O)N(C)C[C@@H]1OCCCC[C@H](C)Oc2ccc(NC(=O)c3ccccc3)cc2C(=O)N([C@H](C)CO)C[C@@H]1C`, the relative growth is inactive: 0.98.

Consider `CC(=O)OC[C@H]1O[C@@H](n2ccc(=O)[nH]c2=O)[C@H](OC(C)=O)[C@@H]1OC(C)=O`, for which the relative growth was inactive: 0.99.

Regarding `COc1ccccc1C#Cc1ccc2c(c1)O[C@H](CN(C)C(C)=O)[C@H](C)CN([C@@H](C)CO)S2(=O)=O`, the relative growth was inactive: 1.02.

As to `CC(C)N1CC=C[C@@]23O[C@@H]4C=CCOC(=O)[C@@H]4[C@H]2C(=O)N(CCCO)[C@@H]3C1=O`, the relative growth is inactive: 0.999.

In the case of `C=CC[C@@H](CC(=O)N(CCO)Cc1ccccc1)C(=O)NCCOC(=O)[C@@H](CC=C)CC(=O)OC(C)(C)C`, the relative growth is inactive: 0.982.

Regarding `COc1cccc(C(=O)Nc2ccc3c(c2)C(=O)N(C)[C@@H]2CC[C@@H](CC(=O)NCC(F)(F)F)O[C@H]2CO3)c1`, the relative growth was inactive: 1.01.

`CN(C)CCCNC(=O)C[C@H]1CC[C@@H](NS(=O)(=O)c2ccccc2)[C@@H](CO)O1`: the relative growth is inactive: 1.01.

On to `C[n+]1c2cc(N)ccc2cc2ccc(N)cc21.[Cl-]`, for which the relative growth is inactive: 0.659.

With `COc1ccc(CN(C)C[C@H]2Oc3ccc(NC(=O)CCN4CCOCC4)cc3C(=O)N([C@@H](C)CO)C[C@H]2C)cc1`, the relative growth is inactive: 0.988.

For `C[C@H](CO)N1C[C@H](C)[C@@H](CN(C)S(=O)(=O)c2ccccc2)Oc2ccc(NS(=O)(=O)c3cccs3)cc2CC1=O`, the relative growth was inactive: 1.01.

Turning to `COc1ccccc1C#Cc1cnc2c(c1)C(=O)N([C@@H](C)CO)C[C@H](C)[C@H](CN(C)C(=O)c1ccc3c(c1)OCO3)O2`, the relative growth was inactive: 0.988.

On to `CN1CCN(C(=O)C[C@H]2CC[C@@H]3[C@H](COC[C@@H](O)CN3S(=O)(=O)c3cccc(F)c3)O2)CC1`, for which the relative growth was inactive: 1.03.

As for `O=C(C[C@H]1CC[C@H]2[C@@H](COC[C@H](O)CN2C(=O)Nc2ccc(F)cc2)O1)NCCCN1CCOCC1`, the relative growth is inactive: 0.96.

As for `C#CC1(O)CCC2C3CCC4=Cc5oncc5CC4(C)C3CCC21C` (stereo not drawn), the relative growth is inactive: 1.11.

On to `COc1ccc(NC(=O)N(C)C[C@@H]2Oc3c(NS(C)(=O)=O)cccc3C(=O)N([C@@H](C)CO)C[C@H]2C)cc1`, for which the relative growth was inactive: 0.998.

With `COc1ccc(S(=O)(=O)N(C)C[C@H]2Oc3ccc(NC(=O)Nc4c(C)noc4C)cc3CC(=O)N([C@@H](C)CO)C[C@H]2C)cc1`, the relative growth is inactive: 0.993.

On to `C[C@H]1CN([C@@H](C)CO)C(=O)Cc2cc(NC(=O)Nc3cccc4ccccc34)ccc2O[C@@H]1CN(C)Cc1ccc(C(=O)Nc2ccccc2N)cc1`, for which the relative growth was inactive: 1.02.

On to `Cc1ccc(S(=O)(=O)Nc2ccc3c(c2)C(=O)N([C@@H](C)CO)C[C@H](C)[C@@H](CN(C)Cc2ccc(C(F)(F)F)cc2)O3)cc1`, for which the relative growth is inactive: 0.988.

Regarding `C[C@@H]1CN([C@H](C)CO)C(=O)Cc2cc(NC(=O)CCN3CCOCC3)ccc2O[C@@H]1CN(C)S(=O)(=O)c1ccc(Cl)cc1`, the relative growth was inactive: 1.01.

With `C[C@H](CO)N1C[C@H](C)[C@@H](CN(C)Cc2ccncc2)OCCCC[C@H](C)Oc2ccc(NC(=O)Cc3ccccc3)cc2C1=O`, the relative growth is inactive: 0.995.

Values taken from the supplement of paper PMC9446081.
